Assay results from the supplement of paper PMC10037445.
Whole data set: some 2,900 compounds, median “IRF Lucia reporter activity, fold change vs agonist alone” near 0.9, cut for the highest 2% near 2.8. The list shows a part of the results.

Columns and labels:
RAW-Dual [1] = experiment: IRF Lucia reporter activity, fold change vs agonist alone; cytotoxicity flag (confluency mask): not cytotoxic; higher = enhanced IRF activity
Method in brief: (§1)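 After 50 nL of library stock was delivered by pin tool to RAW-Dual macrophages (50,000 cells/well, DMEM, 384-well plates), a PRR agonist was added 1 h later and the plates were kept at 37 °C, 5% CO2. Twenty hours later, IRF was read from supernatant by QuantiLuc luminescence and NF-κB by QuantiBlue absorbance at 620 nm. Reporter activity is stated as fold change over agonist-alone wells. Wells with IncuCyte confluency under 70% of agonist controls in both mask sets were counted as cytotoxic.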

RAW-Dual [2] = experiment: IRF Lucia reporter activity, fold change vs agonist alone; cytotoxicity flag (confluency mask): cytotoxic (confluency <70% of control); higher = enhanced IRF activity
Method in brief: as §1

RAW-Dual [3] = experiment: IRF Lucia reporter activity, fold change vs agonist alone; higher = enhanced IRF activity; conditions: library stock concentration (final ~1000-fold dilution): 10 mM; cytotoxicity flag (confluency mask): not cytotoxic; agonist: MPLA (TLR4) […]
Method in brief: as §1

[4] = agonist: 3'3'-cGAMP (STING) 10 ug/mL

## CCCc1cc(C)[nH]c(=O)c1CNC(=O)c1cc(-c2ccc(N3CCN(C)CC3)nc2)nc2c1cnn2C(C)C (library stock concentration (final ~1000-fold dilution): 10 mM)
RAW-Dual [1]; [4]
  IRF Lucia reporter activity: 0.763
RAW-Dual [1]; agonist: LPS (TLR4) 0.1 ug/mL
  IRF Lucia reporter activity: 1.35

## O=C(NC1CCN(CCCCC2(C(=O)NCC(F)(F)F)c3ccccc3-c3ccccc32)CC1)c1ccccc1-c1ccc(C(F)(F)F)cc1 (library stock concentration (final ~1000-fold dilution): 10 mM)
RAW-Dual [2]; [4]
  IRF Lucia reporter activity: 0.0238
RAW-Dual [2]; agonist: LPS (TLR4) 0.1 ug/mL
  IRF Lucia reporter activity: 0.119

## COc1ccc(C(=O)CC2(O)C(=O)Nc3c(Cl)ccc(Cl)c32)cc1 (stereo unspecified) (library stock concentration (final ~1000-fold dilution): 10 mM)
RAW-Dual [1]; [4]
  IRF Lucia reporter activity: 0.518
RAW-Dual [1]; agonist: LPS (TLR4) 0.1 ug/mL
  IRF Lucia reporter activity: 0.915

## COS(=O)(=O)[O-].Cc1cc2c3c([n+](C)c4ccc(F)cc4c3c1)-c1cc(F)ccc1N2C (library stock concentration (final ~1000-fold dilution): 10 mM)
RAW-Dual [1]; [4]
  IRF Lucia reporter activity: 1.39
RAW-Dual [1]; agonist: LPS (TLR4) 0.1 ug/mL
  IRF Lucia reporter activity: 1.53

## CCC1(O)C(=O)OCc2c1cc1n(c2=O)Cc2cc3c(CN(C)C)c(O)ccc3nc2-1 (stereo unspecified) (library stock concentration (final ~1000-fold dilution): 10 mM)
RAW-Dual [1]; [4]
  IRF Lucia reporter activity: 2.77
RAW-Dual [1]; agonist: LPS (TLR4) 0.1 ug/mL
  IRF Lucia reporter activity: 3.25

## COC1/C=C/OC2(C)Oc3c(C)c(O)c4c(O)c(c(/C=N/N5CCN(C6CCCC6)CC5)c(O)c4c3C2=O)NC(=O)/C(C)=C/C=C/C(C)C(O)C(C)C(O)C(C)C(OC(C)=O)C1C (stereo unspecified)
RAW-Dual [3]
  IRF Lucia reporter activity: 0.534

## COC1/C=C/OC2(C)Oc3c(C)c(O)c4c(O)c(c(/C=N/N5CCN(C6CCCC6)CC5)c(O)c4c3C2=O)NC(=O)/C(C)=C/C=C/C(C)C(O)C(C)C(O)C(C)C(OC(C)=O)C1C (stereo unspecified) (library stock concentration (final ~1000-fold dilution): 10 mM)
RAW-Dual [1]; [4]
  IRF Lucia reporter activity: 0.886
RAW-Dual [1]; agonist: LPS (TLR4) 0.1 ug/mL
  IRF Lucia reporter activity: 0.649

## Nc1ncnc2c1C(=O)N(c1ccc(C3CCC(CC(=O)O)CC3)cc1)CCO2 (stereo unspecified)
RAW-Dual [3]
  IRF Lucia reporter activity: 1.05

## Nc1ncnc2c1C(=O)N(c1ccc(C3CCC(CC(=O)O)CC3)cc1)CCO2 (stereo unspecified) (library stock concentration (final ~1000-fold dilution): 10 mM)
RAW-Dual [1]; [4]
  IRF Lucia reporter activity: 1.08
RAW-Dual [1]; agonist: LPS (TLR4) 0.1 ug/mL
  IRF Lucia reporter activity: 0.638

## NC(CO)(CO)CO (library stock concentration (final ~1000-fold dilution): 10 mM)
RAW-Dual [1]; [4]
  IRF Lucia reporter activity: 1.09
RAW-Dual [1]; agonist: LPS (TLR4) 0.1 ug/mL
  IRF Lucia reporter activity: 1.12

## NC(CO)(CO)CO
RAW-Dual [3]
  IRF Lucia reporter activity: 1.16

## C/C1=C/CC[C@@]2(C)O[C@@H]2[C@H]2OC(=O)[C@H](CN(C)C)[C@@H]2CC1 (library stock concentration (final ~1000-fold dilution): 10 mM)
RAW-Dual [1]; [4]
  IRF Lucia reporter activity: 0.0314
RAW-Dual [1]; agonist: LPS (TLR4) 0.1 ug/mL
  IRF Lucia reporter activity: 0.012

## O=C(CCCCCCNC(=O)c1cnc(N(c2ccccc2)c2ccccc2)nc1)NO (library stock concentration (final ~1000-fold dilution): 10 mM)
RAW-Dual [2]; [4]
  IRF Lucia reporter activity: 0.0655
RAW-Dual [2]; agonist: LPS (TLR4) 0.1 ug/mL
  IRF Lucia reporter activity: 0.565

## CCOC(=O)C1OC1C(=O)NC(CC(C)C)C(=O)NCCC(C)C (stereo unspecified)
RAW-Dual [3]
  IRF Lucia reporter activity: 0.906

## CCOC(=O)C1OC1C(=O)NC(CC(C)C)C(=O)NCCC(C)C (stereo unspecified) (library stock concentration (final ~1000-fold dilution): 10 mM)
RAW-Dual [1]; [4]
  IRF Lucia reporter activity: 0.308
RAW-Dual [1]; agonist: LPS (TLR4) 0.1 ug/mL
  IRF Lucia reporter activity: 0.727

## O.S=c1nc[nH]c2nc[nH]c12 (library stock concentration (final ~1000-fold dilution): 10 mM)
RAW-Dual [1]; [4]
  IRF Lucia reporter activity: 1.29
RAW-Dual [1]; agonist: LPS (TLR4) 0.1 ug/mL
  IRF Lucia reporter activity: 2.12

## O.S=c1nc[nH]c2nc[nH]c12
RAW-Dual [3]
  IRF Lucia reporter activity: 1.77

## CC(C)n1nc(-c2cc3cc(O)ccc3[nH]2)c2c(N)ncnc21
RAW-Dual [3]
  IRF Lucia reporter activity: 1.11

## CC(C)n1nc(-c2cc3cc(O)ccc3[nH]2)c2c(N)ncnc21 (library stock concentration (final ~1000-fold dilution): 10 mM)
RAW-Dual [1]; [4]
  IRF Lucia reporter activity: 1.02
RAW-Dual [1]; agonist: LPS (TLR4) 0.1 ug/mL
  IRF Lucia reporter activity: 0.287

## NC(=O)N1c2ccccc2C=Cc2ccccc21
RAW-Dual [3]
  IRF Lucia reporter activity: 0.913

## NC(=O)N1c2ccccc2C=Cc2ccccc21 (library stock concentration (final ~1000-fold dilution): 10 mM)
RAW-Dual [1]; [4]
  IRF Lucia reporter activity: 1.03
RAW-Dual [1]; agonist: LPS (TLR4) 0.1 ug/mL
  IRF Lucia reporter activity: 0.899

## C=CC(=O)N1CCN(C(=O)CNc2cc(I)c(Cl)cc2O)CC1
RAW-Dual [3]
  IRF Lucia reporter activity: 0.184

## C=CC(=O)N1CCN(C(=O)CNc2cc(I)c(Cl)cc2O)CC1 (library stock concentration (final ~1000-fold dilution): 10 mM)
RAW-Dual [1]; [4]
  IRF Lucia reporter activity: 0.048
RAW-Dual [1]; agonist: LPS (TLR4) 0.1 ug/mL
  IRF Lucia reporter activity: 0.251

## Cc1ccccc1CN1C(=O)C2=C(CCN(Cc3ccccc3)C2)N2CCN=C12 (library stock concentration (final ~1000-fold dilution): 10 mM)
RAW-Dual [1]; [4]
  IRF Lucia reporter activity: 0.992
RAW-Dual [1]; agonist: LPS (TLR4) 0.1 ug/mL
  IRF Lucia reporter activity: 0.961

## CC(=O)OCC1=C(C(=O)O)N2C(=O)C(NC(=O)Cc3cccs3)C2SC1 (stereo unspecified) (library stock concentration (final ~1000-fold dilution): 10 mM)
RAW-Dual [1]; [4]
  IRF Lucia reporter activity: 1.08
RAW-Dual [1]; agonist: LPS (TLR4) 0.1 ug/mL
  IRF Lucia reporter activity: 1.29

## CC(=O)OCC1=C(C(=O)O)N2C(=O)C(NC(=O)Cc3cccs3)C2SC1 (stereo unspecified)
RAW-Dual [3]
  IRF Lucia reporter activity: 1.1

## CC(=O)C1CCC2C3CC=C4CC(O)CCC4(C)C3CCC12C (stereo unspecified)
RAW-Dual [3]
  IRF Lucia reporter activity: 1.29

## CC(=O)C1CCC2C3CC=C4CC(O)CCC4(C)C3CCC12C (stereo unspecified) (library stock concentration (final ~1000-fold dilution): 10 mM)
RAW-Dual [1]; [4]
  IRF Lucia reporter activity: 0.976
RAW-Dual [1]; agonist: LPS (TLR4) 0.1 ug/mL
  IRF Lucia reporter activity: 1.1

## O=c1cc(-c2ccc(O)cc2)oc2cc(O)cc(O)c12
RAW-Dual [3]
  IRF Lucia reporter activity: 0.323

## O=c1cc(-c2ccc(O)cc2)oc2cc(O)cc(O)c12 (library stock concentration (final ~1000-fold dilution): 10 mM)
RAW-Dual [1]; [4]
  IRF Lucia reporter activity: 0.322
RAW-Dual [1]; agonist: LPS (TLR4) 0.1 ug/mL
  IRF Lucia reporter activity: 0.154

## O=C(O)C1=C/C(=N\Nc2ccc(S(=O)(=O)Nc3ccccn3)cc2)C=CC1=O (library stock concentration (final ~1000-fold dilution): 10 mM)
RAW-Dual [1]; [4]
  IRF Lucia reporter activity: 0.605
RAW-Dual [1]; agonist: LPS (TLR4) 0.1 ug/mL
  IRF Lucia reporter activity: 0.717

## COC(=O)CC1CC(c2ccc(O)cc2)=NO1 (stereo unspecified) (library stock concentration (final ~1000-fold dilution): 10 mM)
RAW-Dual [1]; [4]
  IRF Lucia reporter activity: 1.02
RAW-Dual [1]; agonist: LPS (TLR4) 0.1 ug/mL
  IRF Lucia reporter activity: 0.978

## COc1ccc(S(=O)(=O)N(CCO)c2ccccc2CN(C)CC=Cc2ccc(Cl)cc2)cc1
RAW-Dual [3]
  IRF Lucia reporter activity: 1.27

## COc1ccc(S(=O)(=O)N(CCO)c2ccccc2CN(C)CC=Cc2ccc(Cl)cc2)cc1 (library stock concentration (final ~1000-fold dilution): 10 mM)
RAW-Dual [1]; [4]
  IRF Lucia reporter activity: 0.178
RAW-Dual [1]; agonist: LPS (TLR4) 0.1 ug/mL
  IRF Lucia reporter activity: 0.924
